According to PubChem BioAssay AID1768 (National Center for Advancing Translational Sciences (NCATS), 2009):
About 620 (0.23%) of roughly 270,000 compounds were called active. Inconclusive means that the source gave no clear call. Such entries were picked first, then a sample of the others. Calls follow the shape of the dose curve; as a rule, active = well fitted inhibition curve with a large enough effect in the polarisation, with a control signal flat (not every such curve was filed as active); inconclusive = small, poorly fitted or top-dose-only effect, or effect the other way, or a change in a side signal; inactive = no such curve, though single readings can be large or run the other way; the % refers to the polarisation. Potencies of inconclusive entries are doubtful fits and often do not repeat. “Side channel” marks fits to a control or component signal instead of the main read-out.

These compounds were tested against Menin (Homo sapiens) (UniProt O00255) (assay: qHTS Assay for Inhibitors Targeting the Menin-MLL Interaction in MLL Related Leukemias: Competition With Texas Red Labeled MLL-derived Mutant Peptide). Conditions: fluorescence polarization; series mostly up to 61.6 µM.
Potency is read from the fitted curve at half-maximal effect; tags tell the direction and shape of the fitted curve or compound fluorescence and quenching.

UniProt O00255, sequence (O00255 whole entry, looked up): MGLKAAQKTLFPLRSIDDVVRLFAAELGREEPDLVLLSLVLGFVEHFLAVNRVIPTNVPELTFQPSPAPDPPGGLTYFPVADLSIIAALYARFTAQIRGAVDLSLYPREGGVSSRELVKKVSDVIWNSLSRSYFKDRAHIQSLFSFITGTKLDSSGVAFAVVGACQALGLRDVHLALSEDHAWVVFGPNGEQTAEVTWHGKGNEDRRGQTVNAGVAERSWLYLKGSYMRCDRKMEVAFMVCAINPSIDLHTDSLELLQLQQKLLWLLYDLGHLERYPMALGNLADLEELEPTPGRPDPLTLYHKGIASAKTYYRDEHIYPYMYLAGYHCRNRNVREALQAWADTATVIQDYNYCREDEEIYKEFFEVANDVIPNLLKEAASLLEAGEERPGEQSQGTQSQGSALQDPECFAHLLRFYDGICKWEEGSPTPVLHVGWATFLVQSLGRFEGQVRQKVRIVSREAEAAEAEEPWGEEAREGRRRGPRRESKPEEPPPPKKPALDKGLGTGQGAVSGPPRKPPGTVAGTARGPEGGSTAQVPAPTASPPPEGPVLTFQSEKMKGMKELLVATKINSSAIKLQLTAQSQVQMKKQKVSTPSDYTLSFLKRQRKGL

SMILES	Potency
Cn1c(=O)c2c(nc3n2CC(O)CN3c2ccc(O)cc2)n(C)c1=O (configuration not stated)	inactive
O=C1c2ccccc2NC(c2cccc(F)c2)N1Cc1ccccc1 (configuration not stated)	inactive
CN(C)S(=O)(=O)c1ccc(NC(=O)/C=C/c2ccccc2Cl)cc1	inconclusive: 3.55 µM [quencher, side channel, partial curve]
CSc1ccc(-c2sc(Nc3ccccc3)n[n+]2-c2ccccc2)cc1	inactive
Cc1cc(CNC(=O)[C@]2(C(F)(F)F)C[C@H](CCC3CCCCC3)CCCO2)nn1C	inconclusive: 2.24 µM [inhibitor, full curve, poor fit]
C/C(CCc1ccc2c(c1)OCO2)=N\N=C(/N)SC1CC(=O)N(c2ccccc2F)C1=O (configuration not stated)	inconclusive: 31.6 µM [quencher, side channel, single point]
CCOC(=O)N1CCN(c2ccc(O)cc2)CC1	inactive
COc1ccc(C=NC(CO)C(O)c2ccc([N+](=O)[O-])cc2)cc1 (configuration not stated)	inconclusive: 3.55 µM [inhibitor, single point]
COc1ccc(Nc2nc(C)c(-c3ccccc3)s2)cc1	inactive
Cc1ccccc1N=Nc1ccc(O)c2ncccc12	inconclusive: 20 µM [quencher, side channel, partial curve]
Cc1cccc(C(=O)NC(NC(=S)Nc2ccc(S(N)(=O)=O)cc2)C(Cl)(Cl)Cl)c1 (configuration not stated)	inconclusive: 28.2 µM [quencher, side channel, single point]
O=S(=O)(Nc1cc(O)cc2cccnc12)c1ccc(Br)s1	inconclusive: 20 µM [quencher, side channel, partial curve]
COc1ccccc1C1=NN(C(=O)c2ccccc2)C(c2ccc(Br)cc2)C1 (configuration not stated)	inconclusive: 39.8 µM [fluorescent, side channel, single point]
CCOc1cc(/C=C(/C#N)c2ccc(Cl)cc2)cc(Cl)c1OCC(=O)O	inconclusive: 10 µM [quencher, side channel, partial curve]
Cc1ccc(CCNC(=O)C2CCCN(S(=O)(=O)c3cccc4nsnc34)C2)cc1 (configuration not stated)	inconclusive: 28.2 µM [inhibitor, single point]
COc1cccc(C(=O)Nc2nnc(S(=O)(=O)N3CCCCC3)s2)c1	inconclusive: 25.1 µM [quencher, side channel, single point]
CC1CCC(N2CCN(c3ccc([N+](=O)[O-])cc3)CC2)CC1 (configuration not stated)	inconclusive: 11.2 µM [inhibitor, partial curve]
COc1cccc(-n2c(SCc3cc(=O)oc4cc(O)c(O)cc34)nc3ccccc3c2=O)c1	inconclusive: 25.1 µM [quencher, side channel, partial curve]
Cc1ccc(C2Nc3cccc4cccc(c34)N2)cc1	inconclusive: 20 µM [quencher, side channel, partial curve]

SMILES	Potency
CCc1ccccc1NC(=O)C1CCCN1S(=O)(=O)c1ccc(-c2ccc(=O)[nH]n2)s1 (configuration not stated)	inconclusive: 22.4 µM [quencher, side channel, partial curve]
C#CCN1C(=O)S/C(=C\c2cc3c(cc2OC)OCO3)C1=O	inconclusive: 39.8 µM [fluorescent, side channel, single point]
CCOc1ccc(NC(C(=O)Nc2cccc(C(C)=O)c2)c2ccccc2)cc1 (configuration not stated)	inconclusive: 25.1 µM [quencher, side channel, partial curve]
Cc1ccc(-c2csc3nc(CN(C)Cc4ccccc4)[nH]c(=O)c23)cc1	inconclusive: 20 µM [fluorescent, side channel, partial curve]
O=C(Nc1ccc(F)cc1)C1C(c2ccccc2)C1(Cl)Cl (configuration not stated)	inconclusive: 28.2 µM [quencher, side channel, single point]
O=C(Cc1cccs1)Nc1cccc([N+](=O)[O-])c1	inconclusive: 22.4 µM [quencher, side channel, partial curve]
CC(=O)Nc1ccc(Nc2ccc(S(=O)(=O)C(F)(F)F)cc2[N+](=O)[O-])cc1	inconclusive: 22.4 µM [quencher, side channel, partial curve]
Cc1[nH]c2ccccc2c1/C=N/NC(=S)NC(C)C	inconclusive: 15.8 µM [quencher, side channel, partial curve]
CSc1ncc(C(=O)Nc2cccc(Cl)c2)c(C)n1	inconclusive: 28.2 µM [quencher, side channel, single point]
COc1ccc(Cl)cc1NC(=S)NNC(=O)c1cccnc1	inconclusive: 20 µM [quencher, side channel, single point]
S=C(NCC1CCCO1)Nc1ccc(Cl)c(Cl)c1 (configuration not stated)	inconclusive: 3.16 µM [quencher, side channel, partial curve]
Cc1cnn(C(=O)c2cc(-c3ccccn3)nc3ccc(Cl)cc23)c1	inconclusive: 28.2 µM [quencher, side channel, single point]
COc1ccc(C2/C=C\CN(CC(C)C)C(C)C(=O)N2Cc2ccc(F)cc2)cc1 (configuration not stated)	inconclusive: 3.16 µM [fluorescent, side channel, full curve, poor fit]
Cc1ccc(NC(=O)CCc2nnc3ccc(NCc4ccco4)nn23)cc1F	inconclusive: 22.4 µM [quencher, side channel, single point]
N#CC(C(=O)c1ccc(S(=O)(=O)N2CCCCCC2)cc1)c1nc2ccccc2[nH]1 (configuration not stated)	inconclusive: 17.8 µM [quencher, side channel, partial curve]
COCCN1CSC(=S)N(Cc2ccco2)C1	inconclusive: 0.631 µM [inhibitor, partial curve, poor fit]
Cc1ccc(C)c2c(SC(C)C(=O)NCc3ccco3)nc(-c3ccccc3)nc12 (configuration not stated)	inconclusive: 39.8 µM [inhibitor, partial curve]
O=c1oc2ccccc2cc1NCc1ccccc1O	inconclusive: 31.6 µM [quencher, side channel, single point]
